The supplement of paper PMC3334620
The full ranking holds about 33,000 sequences; the median of “E-score (-0.5 to 0.5)” is about -0.054, and the highest 2% start at about 0.39. The list shows a part of the results.

target: Ylr278c (UniProt Q05854); assay: PBM E-score (8-mer binding enrichment) (E-score (-0.5 to 0.5)); higher = stronger / more preferred TF binding; most listed sequences are background and not binding sites; conditions: protein concentration: 200 nM; construct: GST-DNA-binding domain
Method in brief: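 PURExpress in vitro transcription/translation supplied GST-tagged yeast transcription factors, either full-length or DNA-binding domain. Applied at about 100-200 nM to universal all-10-mer Agilent arrays double-stranded by primer extension, the bound protein was detected with fluorescent anti-GST. E-scores, modified Wilcoxon-Mann-Whitney statistics, were given by the Universal PBM Analysis Suite to ungapped eight-base words pooled with their reverse complements after masliner normalisation.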

Sequence	PBM E-score
GAGGCCCA	0.0293
AGCCCCTA	0.0295
GAGATCGC	0.0824
ACGGTGAG	-0.00644
CATCCTGA	-0.0621
CCATGGTA	-0.315
CCCCCAAA	-0.277
TACCGCAA	0.0363
CCTCTGAG	-0.037
ACACGTTG	-0.313
AGAAACGA	0.0429
ATGCCCCG	0.275
ACATCCCC	0.197
AATCCTCC	0.163
ACGGCTGA	-0.0822
CCTTCTTC	-0.209
AGCGACAC	-0.182
AACTGTCG	-0.0494
AGCCGACA	0.0582
CTATCTCC	0.236
CGGTGATC	0.234
TGAACGCA	-0.162
AATCTTCG	-0.0054
CAGGTGGG	-0.0242
CAAGATAC	-0.18

Sequence	PBM E-score
ATAAGCAT	-0.127
ATGTATAA	-0.029
ATGGAAGA	-0.207
AAGCGATG	-0.0348
GGAGATTA	0.249
TGGGCCAA	-0.159
GAAAACAA	0.0431
ATGTGGGC	-0.11
CATTACGC	0.159
CGATAGGA	0.111
ACGGACGG	0.209
CACAGCTA	-0.29
AATCCCAC	-0.0017
GCTCCAGA	-0.103
CCCCAGCC	-0.121
CGTCGCCC	0.065
GCCATGCC	0.0185
GCATTGGA	0.0238
GAAGGGTA	0.0363
ATACTAAT	0.0102
CATAATAC	-0.148
CAGATATG	0.0911
ATTCTAGC	-0.166
TCAAAGAA	-0.237
GTGGGTTA	-0.177

Sequence	PBM E-score
AGGCTCAC	-0.223
CTTCGGAA	0.419
GACCCCCC	-0.149
ATACTTCG	0.0835
AGCATTTC	0.0338
CACTTAAA	-0.114
TAAAAGCA	-0.00627
AGAATAAT	-0.142
TCTTGGAA	-0.141
AGGCCACC	-0.0852
AAGCGCCG	0.339
CCAACAAC	-0.112
GATCTTGA	-0.123
GGACGAAA	0.15
AAAGTTGA	-0.169
CCTCTACA	-0.252
ATGTTTGG	-0.0185
CAGTGTAC	-0.128
TAACAATA	-0.0523
CACAACTA	0.0612
ATGGTTGA	-0.0616
ACGGCCAC	0.138
CGCGTGGC	-0.00486
AATTCAGG	0.127
CTCACAAA	-0.0131

Sequence	PBM E-score
AATCAATG	0.00091
GGTGCTAA	0.0327
GTGTGAGA	-0.0203
AATCTACG	0.0338
AATGTTAG	-0.144
CACAAGCG	-0.124
GCTCCTGA	0.15
GAGAGAAC	-0.101
ACTGGAAT	-0.075
CGCAGGGC	0.049
CGGTTGCC	0.109
CGGAATAG	0.391
TATCTTCA	-0.0825
CGCACCCC	0.179
TTAGCCAA	-0.161
TAACAGAA	-0.173
CGTAACGA	-0.128
CGTTCGCA	-0.18
CCGGGTAG	0.181
ACTGCGGC	0.126
GCTGGGAA	0.0943
ATCTCTCA	-0.0439
TAAGTGTA	-0.263
CCTTTATC	0.00066
CTCCCAGC	-0.0468

Sequence	PBM E-score
TAAGGATA	-0.0608
ATTATTCA	-0.0367
CATTTTGA	-0.194
CGACCCCG	0.247
CGCTTAAA	0.00357
AGACTACG	-0.144
GAGGCTCA	-0.184
GCATACAC	-0.122
AAATATAG	-0.0575
CGAGTCTC	-0.0925
CGACCTAA	0.0918
GTTTATAA	0.168
ACCCGTGC	-0.0704
CAAGATTG	-0.151
CCTGCAGG	-0.0589
CATAGTCA	-0.287
AGAAGAGG	-0.194
ATAACTAC	0.0549
CACCCCTC	-0.0449
GCCACCGC	0.0893
ATCGGTTA	0.186
GAAGAAAA	0.0735
CTTTATTC	-0.00152
CCCTGGCC	-0.183
CATAGGAC	-0.146

Sequence	PBM E-score
CAGAACGA	-0.257
AGATCGCC	-0.00696
AGAAACCA	-0.169
GGGGAAAA	0.132
ATCCTAGC	-0.285
GTTCTACA	-0.219
CGGCTGCA	0.117
CCCATACA	-0.259
ACCTAAAC	0.0245
ATGCCTGG	-0.228
GCTACGTA	-0.158
ACTTGCAT	-0.0159
ATTGCAGC	-0.0318
ACAGCGGG	0.136
AGAGTGTG	-0.174
ACAGTTAG	-0.0328
ACACATAG	-0.262
GACTCGTA	-0.143
CACTATGG	-0.262
CTTTACGC	-0.177
CAATCCAG	-0.0415
CAAAGCGG	0.175
AGCGTCAT	-0.14
TCTGACAA	-0.223
CCGTTCCA	0.0158

Sequence	PBM E-score
CGCAACTA	0.127
AGCTATTA	-0.129
GAGCCTAA	-0.0125
ATAATTCA	-0.0473
GAAGGCGC	-0.0379
CGTTAACG	0.00213
CAAGAACC	-0.0423
TGCCGTAA	-0.0603
AAAGACCG	0.277
GAAACTGA	-0.0747
CCGACCTA	0.192
GCACTCCC	0.0431
ATCGAGAT	-0.242
CGCCTTGA	-0.0423
TCGGTCAA	0.0369
CGTCGCTA	-0.0837
ACATAAGT	-0.156
GATTAAGC	0.229
AAACTTCA	-0.0425
CTCCCCGA	0.268
CAAATCTG	-0.287
AATTTAGC	0.0413
ACGCGACG	0.0101
CACTACAA	-0.0272
AAAGTTCT	0.0288

Sequence	PBM E-score
ACGGCGAT	0.197
GGGGCACC	0.0504
ATACAATG	-0.0989
AATGGGAA	-0.223
AACATGGC	-0.171
CGGTGAAA	0.36
AAGAAGAT	0.078
AAAGTAAA	-0.0568
ATGAGTAA	-0.185
AGAAAGTG	-0.0436
ATTGCATC	-0.105
CTTTTCCC	0.033
ATCACAAC	-0.063
TCTGCAAA	-0.166
AGCGCCGA	0.291
AGAGCCTA	-0.155
GTACATAC	-0.012
GCAATAGA	-0.147
AACACGTT	-0.103
CTCCTTTA	-0.132
AAGAAATA	-0.202
ATGCTATA	-0.309
GCTCCACA	-0.178
GAAAAAGC	0.134
ACGAAAAG	-0.0347

Sequence	PBM E-score
CAACTGAC	-0.106
CTAGTGAG	-0.105
CTTAACTA	-0.204
ATCTTAAG	-0.146
CGTCTGAC	-0.0584
CAGGTGGA	-0.218
TGTAACAA	-0.203
ATCAGAAA	-0.145
AACGCCCC	0.169
ATTCTCAG	-0.218
AATAGGGC	0.0122
ACTTTCAT	-0.16
AAAGGCAT	-0.132
AGCTGAGC	-0.145
CTGCGATC	-0.0009
GGAGGCGA	0.0526
AATCCTTG	0.0744
TCGCCAAA	-0.184
ATTTGCTG	-0.0877
CCTCATTA	-0.0573
AATATCAC	-0.0363
CAGCGACC	-0.116
AAGTCAAC	-0.28
AGTTCTCG	-0.0718
ACGGCTCT	-0.0791

Sequence	PBM E-score
CAATAAGA	-0.147
ATCCCCGA	0.379
ATACTTCA	-0.155
ATCTTAAA	-0.0174
GAGCCCCC	-0.0733
CCTTGCTA	-0.17
CAAGCGGA	0.272
GCTCCAAA	-0.172
ATTAATAA	0.156
ATCTCCGG	0.493
ATCCTATG	0.0235
AACGAGCA	-0.239
ATTTAAGG	-0.0397
TGAGGGAA	-0.178
AATCATGG	-0.228
AATAGTCA	-0.133
AGCAGGCC	-0.113
AACGTCTC	-0.263
CTACGCTA	-0.121
ATCTCGAA	-0.0131
ATTTCTGG	-0.0816
GGAGGATA	0.0329
CTGTGAGC	-0.12
TACACGTA	-0.173
AATGAGGT	-0.032

Sequence	PBM E-score
CCCTACAC	0.00834
CGTCATCA	-0.197
ATAATAGC	0.00806
CAACGCAC	-0.00309
CTAGTCTC	-0.156
CATGACTA	-0.263
AATTAATG	0.0742
ACCTATCC	-0.0335
CACTTAGC	-0.122
ACTTGTGG	-0.0504
AAATTTTC	0.0224
CCTGTTCA	-0.287
AAGGATCG	-0.0269
CCCACAAG	-0.0237
CAAGGAGC	-0.0876
AAATGACA	-0.181
ATTCCTGA	-0.0977
CTGCTACA	-0.0228
CGCGGAGA	0.428
CCGTGTCA	0.235
TCGACTAA	-0.0871
CAAACTTC	0.0257
AGGTACTA	-0.157
CCCTGGGC	-0.282
CCGGGGCC	0.358

Sequence	PBM E-score
CCCCCCCC	-0.351
TCGAGACA	-0.266
AAAACAGC	-0.0177
CCCCGGTA	0.329
CACCCCCC	-0.186
AGTATCCG	0.264
ATATCCGA	0.387
ACGGAGTC	0.398
AACCCTAG	-0.209
TGTCGCAA	-0.0678
GTCCGATA	0.414
CACGGACC	0.282
CCGTAGTC	0.301
GAATGAGC	-0.0948
GAGCTGGC	-0.0798
GAGGACGC	0.00854
ATTGTGGC	-0.104
AAACGACC	-0.0492
AAACCTCA	0.0175
CGTCCAGC	-0.233
GCATGAGC	-0.134
ACACAGGA	-0.0473
ACGTCAAG	-0.309
AAGGCACA	-0.231
GGTCATAA	-0.0252

Sequence	PBM E-score
CCTCCCCC	-0.181
CATCGAGG	-0.185
AGTGCCCC	-0.118
GTGCTCAA	-0.104
ACCCACTA	0.0798
TAGGGTAA	0.0144
ACGTGAAA	-0.124
CGCCATTC	0.198
ATCATGAT	-0.14
GGCGCGAC	0.19
AGAAAGTA	-0.141
CCGTGCAC	0.0905
AAATGCCA	-0.131
ACGTGTAA	-0.217
AAGCGCAG	0.199
CAAGGACC	-0.0179
ATCCTCCC	0.0358
CATTACCA	-0.0748
AGGCGGGG	0.221
TCTCTCCA	-0.0638
TCCCAGAA	-0.128
CCTTACTA	-0.0108
ACACTGTA	-0.213
ATTATTTA	0.11
ATATTCGA	-0.0363

Sequence	PBM E-score
AGCGTACC	-0.0838
CCCGAATC	0.251
GTATGCGA	-0.0635
TCGCCTCA	0.0413
AATCAATC	0.136
CTCCGTTA	0.347
GATGTTAA	0.0201
ACAGATAA	-0.0863
CGTGGAAC	0.0665
ATTGTGGA	-0.0975
ACGTGAAC	-0.192
CAGATGCC	-0.132
CCATTCAG	-0.0237
GACGGGGA	0.312
CGCGGGCC	0.272
ATGTAGTC	-0.141
CACTACAG	-0.0843
GGTAACCA	-0.263
CGGAGTAC	0.462
